This is one part of the list. Antibody binding of pooled human sera (four to six donors per pool; dilution not stated) to peptides of the Trypanosoma cruzi antigen TSSA on microarrays. Quantile-normalised fluorescence in arbitrary units, mean of duplicate arrays; higher = more binding. No active / inactive call. The uninfected pools are read here as the healthy donors of the same country. The strongest signals lie near the top of the scale (about 60,000).

Here are results for 40 sequences from the supplement of paper PMC10441789.

In the experiment the test system is pooled sera of uninfected people, Colombia. The experiment in a line: antibody binding signal (normalised fluorescence) (arbitrary fluorescence units); higher = stronger serum antibody binding to peptide. Here is the method: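 Microarray of 15-residue peptides over residues 30-55 of Trypanosoma cruzi TSSAII, each with 1 to 10 substitutions at naturally variable positions, probed with one serum pool per country.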
Consider PSGTDNKTAAGGTPS, for which the antibody binding signal was found to be 349.

For the sequence TEKKPATGEAPSQSG, the antibody binding signal amounted to 289.

On to TPPSGKDKKAAAGEA, for which the antibody binding signal was found to be 209.

Take KENKAAAGGTPSPSG: the antibody binding signal worked out at 164.

Regarding SGTDKKPATGGAPSP, the antibody binding signal turned out to be 347.

With TPPSGTENKTATGEA, the antibody binding signal came out at 269.

GTENKTAAGGTPSPS returned an antibody binding signal of 531.

On to ENKPATGEAPSPPGA, for which the antibody binding signal is 162.

The sequence GTENKPATGGTPSQP yielded an antibody binding signal of 237.

In turn, GKEKKPATGGAPSPS displayed an antibody binding signal of 90.8.

The sequence GTDNKPATGGTPSQP displayed an antibody binding signal of 273.

On to PSGTDNKAATGGAPS, for which the antibody binding signal came out at 361.

The sequence EKKPAAGETPSPPGA gave an antibody binding signal of 138.

For EKKTATGGTPSQPGA, the antibody binding signal is 608.

As for SGKDNKAATGGAPSQ, the antibody binding signal is 241.

DNKAAAGGTPSQSGA: the antibody binding signal came out at 391.

For the sequence GTEKKTATGEAPSQP, the antibody binding signal stood at 111.

The sequence TPPSGKEKKAATGGA displayed an antibody binding signal of 276.

Sequence STPPSGTDNKAAAGE displayed an antibody binding signal of 147.

In turn, SGKDKKAAAGGAPSP returned an antibody binding signal of 137.

Take TDNKTATGGAPSPPG: the antibody binding signal was 146.

ENKAATGGTPSPSGA returned an antibody binding signal of 375.

Turning to GTDNKPATGGAPSPS, the antibody binding signal is 219.

SGKDKKTAAGETPSP came in with an antibody binding signal of 359.

KDKKAAAGETPSPPG showed an antibody binding signal of 68.5.

As to TEKKTAAGETPSPPG, the antibody binding signal is 633.

SSTPPSGKDNKAATG showed an antibody binding signal of 205.

Sequence KENKTATGGAPSQPG registered an antibody binding signal of 126.

STPPSGKDKKAAAGE registered an antibody binding signal of 175.

GKDKKAAAGGAPSQP showed an antibody binding signal of 85.9.

For KDNKAATGETPSQPG, the antibody binding signal came to 261.

In turn, KEKKTATGGTPSPSG yielded an antibody binding signal of 122.

TDKKPAAGEAPSPSG gave an antibody binding signal of 76.

Sequence SGKEKKTATGGAPSQ had an antibody binding signal of 107.

SGKENKTATGEAPSQ returned an antibody binding signal of 681.

As to TPPSGTENKTAAGGT, the antibody binding signal worked out at 659.

For the sequence TDNKPAAGGAPSPPG, the antibody binding signal was 224.

SGTDKKAATGEAPSP: the antibody binding signal was 614.

GKENKAATGGTPSPP came in with an antibody binding signal of 141.

KDNKTATGGTPSQSG gave an antibody binding signal of 184.
